Hit rate of the full screen: of about 310,000 compounds, about 14,000 (4.5%) showed an effect of 50% or more. The effect is printed as a negative number. The list shows a part of the results.
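Also: peak tail current of the secondary pulse compared with the same well before compound.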

The test deals with human ether-à-go-go-related gene (hERG) potassium channel (human, UniProt Q12809). The test is described as follows: primary screen, population patch clamp on CHO cells stably expressing hERG.
Sequence of human ether-à-go-go-related gene (hERG) potassium channel (Q12809 whole entry, looked up): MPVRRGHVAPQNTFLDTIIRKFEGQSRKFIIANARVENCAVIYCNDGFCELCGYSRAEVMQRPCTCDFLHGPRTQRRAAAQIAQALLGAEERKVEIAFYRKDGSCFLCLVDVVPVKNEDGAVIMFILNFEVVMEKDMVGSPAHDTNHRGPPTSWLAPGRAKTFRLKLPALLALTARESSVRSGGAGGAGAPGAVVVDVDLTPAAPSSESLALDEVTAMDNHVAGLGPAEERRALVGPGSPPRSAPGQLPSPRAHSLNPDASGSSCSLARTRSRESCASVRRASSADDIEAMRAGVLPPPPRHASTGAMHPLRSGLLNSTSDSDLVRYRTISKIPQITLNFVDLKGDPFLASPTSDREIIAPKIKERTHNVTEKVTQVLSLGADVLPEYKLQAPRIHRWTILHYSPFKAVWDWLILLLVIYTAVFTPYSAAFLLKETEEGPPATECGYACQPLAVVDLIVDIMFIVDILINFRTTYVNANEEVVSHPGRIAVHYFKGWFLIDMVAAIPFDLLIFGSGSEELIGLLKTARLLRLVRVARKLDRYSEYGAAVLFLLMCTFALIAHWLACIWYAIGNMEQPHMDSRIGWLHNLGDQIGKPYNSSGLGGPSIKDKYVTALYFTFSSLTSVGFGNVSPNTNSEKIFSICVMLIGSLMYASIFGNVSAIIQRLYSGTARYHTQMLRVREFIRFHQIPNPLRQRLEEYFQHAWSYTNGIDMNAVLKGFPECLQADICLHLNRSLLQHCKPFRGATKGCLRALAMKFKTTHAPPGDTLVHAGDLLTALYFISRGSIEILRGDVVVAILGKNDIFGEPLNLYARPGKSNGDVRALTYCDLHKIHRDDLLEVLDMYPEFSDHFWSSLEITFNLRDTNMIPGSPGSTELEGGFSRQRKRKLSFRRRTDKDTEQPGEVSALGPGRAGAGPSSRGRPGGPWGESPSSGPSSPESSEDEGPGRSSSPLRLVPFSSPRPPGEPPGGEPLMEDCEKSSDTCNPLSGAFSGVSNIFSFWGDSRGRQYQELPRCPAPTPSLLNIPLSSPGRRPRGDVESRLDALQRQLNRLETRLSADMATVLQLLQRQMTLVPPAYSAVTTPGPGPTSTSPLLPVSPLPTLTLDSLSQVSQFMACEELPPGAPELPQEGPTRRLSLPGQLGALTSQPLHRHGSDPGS
Regarding `CCCCNC(=O)CSc1nc2ccc(NC(=O)CSc3nnc(COc4ccccc4C)n3C)cc2s1`, the “hERG current change (%, negative = inhibition) at 10uM” value was -8.91%.
The figure for `Cc1cc(=O)oc(C)c1C(=O)Nc1cccc(F)c1` is 21.2%; for `COc1ccc(NC(=O)C2CCCC2)cc1S(=O)(=O)N1CCOCC1` it is -1.23%; for `CC(C)(C)C1=CC(O)(c2ccccc2)C=C(C(C)(C)C)C1=O` it is -13.4%.
The figure for `O=S(=O)(c1ccc2c(c1)OCCO2)N1CCN(c2nc(-c3cccnc3)nc3ccccc23)CC1` is -29.9%; for `O=C(O)c1ccc(-n2nc(C(F)(F)F)c3c2-c2ccoc2CC3)cc1` it is 16.3%; for `CC(C)(C)C(=O)NC1(C(F)(F)F)NC(=O)N(c2ccc(F)cc2)C1=O` (centres unmarked) it is 0.322%.
The figure for `COC(=O)c1cc(N2CCNCC2)nc2ccccc12.Cl` is -17%; for `Cc1sc(-c2ccncc2)nc1OC(=O)c1ccc(F)cc1F` it is 27.3%.
With `COc1ccc(N2CCC(CNC(=S)Nc3cccc(C)c3)C2)cc1` (centres unmarked), the “hERG current change (%, negative = inhibition) at 10uM” value was -0.0408%.
The figure for `CCC1CCCCN1C(=S)NC(=O)c1ccc(F)c(S(=O)(=O)N2CCOCC2)c1` (centres unmarked) is -0.888%; for `CC(C)[C@H](NC(=O)N1CC(=O)Nc2ccccc21)C(=O)Nc1nccs1` it is 22.2%.
The figure for `S=c1[nH]nc(-c2ccccc2)n1/N=C/C=C/c1ccco1` is 13%.
The figure for `O=C(CCc1nnc(-c2ccsc2)o1)N1CCCCC1CCn1ccnc1` (centres unmarked) is -28.1%.
In the case of `c1coc(C2OCC3(CO2)COC(c2ccco2)OC3)c1` (centres unmarked), the “hERG current change (%, negative = inhibition) at 10uM” value was determined as 11.4%.
As to `Cc1cc(C(=O)Nc2ccccc2N2CCOCC2)c(C)o1`, the “hERG current change (%, negative = inhibition) at 10uM” value is recorded as -18.1%.
`CCc1cccc(C)c1NC(=O)CSc1nc(-c2ccccc2F)nc2nc[nH]c12`: the “hERG current change (%, negative = inhibition) at 10uM” value came out at 3.31%.
In the case of `COc1ccc(C(=O)N/C(=C\c2ccccc2)C(=O)Nc2ccccc2C(=O)O)cc1`, the “hERG current change (%, negative = inhibition) at 10uM” value stood at 11.3%.
Regarding `Fc1ccc(Cn2nnc(-c3ccc(Cl)cc3)n2)cc1`, the “hERG current change (%, negative = inhibition) at 10uM” value turned out to be 18.4%.
The figure for `CC(=C/C(=O)[O-])/C=C/c1ccco1.[Na+]` is 12.5%; for `CCc1cc(=O)oc2c(C)c(OCC(=O)NCCCN3CCCC3=O)ccc12` it is -7.32%; for `COc1cccc(CN2CCN(C(=O)Cc3ccccc3OC)CC2)c1` it is 20.2%.
The figure for `COc1ccc(OCCSc2nnc(CCNC(=O)c3ccc(Cl)c(Cl)c3)n2C)cc1` is -3.13%.
The figure for `O=C(CCNC(=O)c1ccc(Br)cc1)NC1CCCCCC1` is -5.25%; for `O=C(Nc1ccccc1)N1N=C(c2ccc(F)cc2)CC1c1ccc(F)cc1` (centres unmarked) it is -10.1%; for `Cc1ccc(NC(=O)COc2ccccc2)c(NC(=O)c2ccco2)c1` it is -9.89%.
For the molecule `OCCNC(=S)Nc1cc(Cl)cc(Cl)c1`, the “hERG current change (%, negative = inhibition) at 10uM” value worked out at 12.4%.
The figure for `O=C(/C=C/c1ccco1)Nc1cccnc1Cl` is 2.52%; for `O=C(Nc1c(Cl)cc(Cl)cc1C(=O)NCCN1CCOCC1)c1cccc([N+](=O)[O-])c1` it is -13.9%.
The figure for `c1ccc2c(NC3CCCC3)nnc(NC3CCCC3)c2c1` is -74.9%.
For the molecule `O=C(/C=C/c1ccccc1)Nc1ccc(S(=O)(=O)N2CCOCC2)cc1`, the “hERG current change (%, negative = inhibition) at 10uM” value came to 4.08%.
The figure for `COc1ccc(-c2nc(CS(=O)CC(=O)NCc3ccc4c(c3)OCO4)c(C)o2)cc1` (centres unmarked) is -40%; for `CCSc1nnc(NC(=O)CSC2=NN3CCCC(=O)N=C3S2)s1` it is 0.749%.
Regarding `COc1ccc2[nH]cc(C(=O)N3CCCCC3)c(=O)c2c1`, the “hERG current change (%, negative = inhibition) at 10uM” value turned out to be 8.17%.
The figure for `NC(=O)CC(NC(=O)c1ccccc1)c1ccc(NCC2CC2)c([N+](=O)[O-])c1` (centres unmarked) is -35.3%; for `O=C(O)C(O)C(O)c1nc2ccccc2[nH]1` (centres unmarked) it is 13.8%; for `CN1CCc2c(sc3c2c(=O)n(-c2ccccc2)c2nnc(SCc4ccc(Cl)cc4)n32)C1` it is -2.08%.
The figure for `COc1ccc(OC)c(NC=C2C(=O)OC(C)(C)OC2=O)c1` is 0.742%.
Regarding `Cl.N[C@@H](CO)c1nnc([C@H](CCC(=O)O)NC(=O)C2CCNCC2)o1`, the “hERG current change (%, negative = inhibition) at 10uM” value worked out at 13.2%.
Consider `Cc1[nH]c2ccccc2c1C(=O)NS(=O)(=O)Nc1ccc(F)cc1`, for which the “hERG current change (%, negative = inhibition) at 10uM” value is recorded as 19%.
Take `O=[N+]([O-])c1ccc(Cl)c(/C=N/N2CCN(Cc3ccccc3Cl)CC2)c1`: the “hERG current change (%, negative = inhibition) at 10uM” value is recorded as -16.6%.
The figure for `Cc1cc(C)c(NC(=O)CSc2nc(=O)n3cc(C)ccc3n2)c(C)c1` is 10.8%; for `O=C(O)C1C2CCC(O2)C1C(=O)Nc1ccccc1Br` (centres unmarked) it is 5.56%; for `COc1ccc(NC(=O)CSc2nnc3ccc(-c4ccncc4)nn23)cc1` it is -30.9%.
With `c1ccc2cc(OCCOCCOc3ccc4ccccc4c3)ccc2c1`, the “hERG current change (%, negative = inhibition) at 10uM” value is -5.55%.
For the molecule `COc1ccc(OCC(O)CN2CCc3ccccc3C2)cc1.Cl` (centres unmarked), the “hERG current change (%, negative = inhibition) at 10uM” value is -33.1%.
Turning to `O=C(CSc1nnc(C23CC4CC(CC(C4)C2)C3)o1)Nc1ccc(N2CCOCC2)c(Cl)c1`, the “hERG current change (%, negative = inhibition) at 10uM” value is 16.3%.
Consider `Cc1ccc(OCc2ccc(C(=O)NN)o2)cc1C`, for which the “hERG current change (%, negative = inhibition) at 10uM” value worked out at 6.24%.
For `CCOc1ccc(CCNC(=O)CN2C(=O)c3cccnc3Oc3ccc(C)cc32)cc1OCC`, the “hERG current change (%, negative = inhibition) at 10uM” value was -9.55%.
As for `CCN(CC(=O)Nc1ccc2c(c1)OCCO2)C(=O)CCOc1ccccc1`, the “hERG current change (%, negative = inhibition) at 10uM” value is on record as -1.92%.
The figure for `Cc1cc(=O)oc(C)c1C(=O)N1CCN(C)CC1` is 10%; for `O=C(Nc1ccc(F)cc1)c1ccccc1S(=O)(=O)c1ccccc1[N+](=O)[O-]` it is -17.5%.
On to `Cc1cc(C)c(S(=O)(=O)N2CCC(C(=O)NCc3ccncc3)CC2)c(C)c1`, for which the “hERG current change (%, negative = inhibition) at 10uM” value is on record as -14%.
The figure for `CCC1CCCCN1CCCNC(=O)CN1C(=O)COc2ccc(S(=O)(=O)N3CCOCC3)cc21` (centres unmarked) is -3.51%; for `COc1ccc(N=c2cc(-c3ccc(O)cc3)oc3ccccc23)cc1.Cl` it is -42.8%; for `COc1ccccc1NC(=S)NNC(=O)c1ccncc1` it is 24.2%.
The figure for `Cc1ccc(-c2cc(C(=O)Nc3ccccc3C)c3ccccc3n2)o1` is 9.38%; for `CCCCCCCn1c(=O)c(C(=O)OC)c(N)c2ccccc21` it is -9%; for `O=C(c1cccc(-n2cccc2)c1)N1CCN(S(=O)(=O)c2ccccc2)CC1` it is -32%.
The figure for `CCNC(=O)c1ccc(OCC(=O)Nc2ccc(F)cc2)c(OC)c1` is -46%; for `O=c1nc(SCc2c(F)cccc2Cl)nc(-c2ccccc2)[nH]1` it is 12.9%.
As for `CC(C)NC(=O)c1ccc2c(c1)S(=O)(=O)c1ccccc1C2=O`, the “hERG current change (%, negative = inhibition) at 10uM” value was 8.77%.
The figure for `CCCOP(=O)(c1ccc(N(C)C)cc1)C(O)c1cc(OC)ccc1OC` (centres unmarked) is 0.331%.
The figure for `COc1cccc(NC(=O)CCc2nc(-c3ccccc3F)no2)c1` is -0.885%; for `O=C(O)c1ccc(N/N=C/c2ccc3nccnc3c2)cc1` it is -4.73%.
For the molecule `CCOc1ccccc1N(CC(=O)Nc1cc(OC)ccc1OC)S(=O)(=O)c1ccccc1`, the “hERG current change (%, negative = inhibition) at 10uM” value stood at 22.7%.
On to `COCCN1C(=O)c2ccc(C(=O)Nc3cccnc3)cc2C1=O`, for which the “hERG current change (%, negative = inhibition) at 10uM” value is on record as 9.67%.
The figure for `CC1=C(C(=O)OC2CCCCC2)C(c2ccco2)n2ncnc2N1` (centres unmarked) is 6.97%; for `Cc1ccc(N2CC(O)Cn3c2nc2c3c(=O)n(C)c(=O)n2C)cc1` (centres unmarked) it is 16.6%.
The figure for `COc1ccc(-c2noc(CN(C)C(=O)c3ccc4c(c3)OCO4)n2)cc1` is -25.5%; for `O=c1cc(-c2ccccc2Cl)oc2cccc(O)c12` it is -8.9%; for `CC(CN1CCOCC1)OC(=O)C1COc2ccccc2O1.Cl` (centres unmarked) it is 19%.
Turning to `CCN(CC)S(=O)(=O)c1ccc(NC(=S)NC(=O)CC(C)C)cc1`, the “hERG current change (%, negative = inhibition) at 10uM” value is reported as -5.43%.
The figure for `O=C(CSCC(=O)NCc1ccco1)NCc1ccco1` is -66%; for `O=S(=O)(c1cccs1)N1CCN(Cc2nc3ccccc3s2)CC1` it is -27.8%.
The figure for `Cc1ncc([N+](=O)[O-])n1CCOC(=O)c1cc(Cl)cc(Cl)c1N` is -39%; for `CCCn1nc(-c2nnc(-c3ccc(C)c(C)c3)o2)c2ccccc2c1=O` it is -8.54%.
The figure for `CCC(C)n1c(=N)c(C#N)cc2c(=O)n3cc(C)ccc3nc21` (centres unmarked) is -70.9%.
With `Cn1ccnc1SCC(=O)NC12CC3CC(CC(C3)C1)C2`, the “hERG current change (%, negative = inhibition) at 10uM” value is recorded as 7.72%.
The figure for `Cc1ccc(OCC(=O)N(C)CCc2ccccn2)cc1` is 10%.
The figure for `COc1ccc(/C=C/c2c(-c3ccc(OC)cc3)oc3ccccc23)cc1` is -8.16%; for `Cc1ccc(CN2CCN(/N=C/c3cc(Br)cc(Br)c3O)CC2)cc1` it is 5.09%.
The figure for `C=CCc1cc(OC)ccc1OCC(O)CN1CCN(c2ccc(OC)cc2)CC1.Cl` (centres unmarked) is -71.2%; for `O=P(Nc1c(Cl)cccc1Cl)(c1ccccc1)c1nc2c(s1)CCCC2` (centres unmarked) it is 10%; for `Cc1cccc(NC(=O)CCN2C(=O)c3ccccc3S2(=O)=O)c1C` it is -13.1%.
In the case of `Cc1cccc(C)c1NC(=O)NCCCN1CCN(c2ccccc2)CC1`, the “hERG current change (%, negative = inhibition) at 10uM” value is -41.1%.
The figure for `CSc1ccc(S(=O)(=O)NCCSC(C)(C)C)cc1` is -10.9%.
`CN(C)S(=O)(=O)c1ccc(C(=O)NCCOc2ccccc2)cc1`: the “hERG current change (%, negative = inhibition) at 10uM” value was -17.2%.
In the case of `O=C(NCc1cccc(Br)c1)C1CC(c2ccccc2[N+](=O)[O-])=NO1` (centres unmarked), the “hERG current change (%, negative = inhibition) at 10uM” value is -42%.

The values are drawn from publication PMC4336329 (PLoS ONE, 2015).
